# Several values for one entry are separate records, joined by “and”; a condition that tells them apart may be missing. Equal entries are not always repeated. This list was built around the results that the source calls inconclusive (neither active nor inactive); the mix of calls is not that of the screen. For part of these data: Where the call is inconclusive, the potency comes from a doubtful curve fit. Activity calls are given as the source filed them. Unless noted, the call rests on the fitted dose curve; in most records, active means well fitted curve in the direction sought with a large enough effect in the repeat runs; inconclusive means weak or mixed curves; inactive means no such curve, though single readings can be large; an effect the other way counts as inactive or inconclusive.
# Assays:
# [1] = biological target: Peroxisome proliferator-activated receptor gamma (Homo sapiens) (UniProt P37231); test: qHTS assay to identify small molecule antagonists of the peroxisome proliferator-activated receptor gamma (PPARg) signaling pathway (AID 743191; calls by dose curve; further: nearly all actives have a fitted effect of over 30% in size; further: potency means the concentration at half of the fitted maximal effect); settings: HEK293H PPARg-UAS-bla, beta-lactamase ratio, antagonist, 17 h; ratio activity, negative = inhibition: at 62.6 µM (top of the series) unless noted
# Outline: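 GeneBLAzer PPARg UAS-bla HEK293H cells carrying a UAS-driven beta-lactamase reporter were plated at 3000 cells/well, preincubated 5 h at 37C, then given compound for 17 h at 37C; LiveBLAzer B/G FRET substrate was read after 1 h at room temperature.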
# [2] = qHTS assay to identify small molecule antagonists of the peroxisome proliferator-activated receptor gamma (PPARg) signaling pathway - cell viability counter screen (AID 743194); settings: PPARg-bla HEK293H viability, CellTiter-Glo luminescence, 17 h; Potency: co-treated with 50 nM rosiglitazone unless noted; activity change, negative = cytotoxicity: at 62.6 µM (top of the series), co-treated with 50 nM rosiglitazone unless noted; further: nearly all actives have a fitted effect of over 55% in size; further: potency means the concentration at half of the fitted maximal effect; on activity change, negative = cytotoxicity: on the % scale 0 is the no-effect control and ±100 the full control effect
# Outline: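 PPARg-UAS-bla HEK293H cells were plated, rested 5 h at 37 C, then treated with compounds plus rosiglitazone (50 nM final) for 17 h at 37 C; viability was then read by CellTiter-Glo luminescence after 30 min at room temperature.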
# [3] = qHTS assay for small molecule agonists of the antioxidant response element (ARE) signaling pathway (AID 743202; active means well fitted activation curve with a large enough effect in the signal ratio in the repeat runs, not every such curve was filed as active; inconclusive means weak or mixed curves, or effect the other way; inactive means no such curve, though single readings can be large or run the other way; the % refers to the signal ratio; further: potency means the concentration at half of the fitted maximal effect; on activation: on the % scale 0 is the no-effect control and ±100 the full control effect); settings: HepG2 ARE-bla reporter, beta-lactamase FRET, 16 h; activation: at 73.3 µM (top of the series) unless noted
# Outline: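 Read-out: LiveBLAzer B/G FRET substrate fluorescence after 2 h at room temperature, following 16 h compound treatment at 37 C of HepG2 cells carrying an ARE-driven beta-lactamase reporter.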
# [4] = qHTS assay for small molecule activators of the heat shock response signaling pathway - cell viability counter screen (AID 743209); settings: HSE-bla HeLa viability, CellTiter-Glo luminescence, 5 h; activity change, negative = cytotoxicity: at 62.6 µM (top of the series) unless noted; further: nearly all actives have a fitted effect of over 50% in size; further: potency means the concentration at half of the fitted maximal effect
# Outline: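 HSE-bla HeLa cells plated overnight, then exposed to Tox21 compounds (23 nL in DMSO) for 5 h at 37 C. After the bla reporter read, CellTiter-Glo was added in the same wells and luminescence read after 30 min at room temperature.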
# [5] = qHTS assay to identify small molecule antagonists of the peroxisome proliferator-activated receptor delta (PPARd) signaling pathway - cell viability counter screen (AID 743213); settings: PPARd-bla HEK293H viability, CellTiter-Glo luminescence, 17 h; viability change, negative = cytotoxic: at 62 µM (top of the series) unless noted; further: potency means the concentration at half of the fitted maximal effect; nearly all actives have a fitted effect of over 50% in size
# Outline: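 Luminescence from CellTiter-Glo, added after the bla read and incubated 30 min at room temperature, gives viability of HEK293H PPARd-bla cells exposed to compounds for 17 h at 37 C with 300 nM L165041.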
# [6] = biological target: Peroxisome proliferator-activated receptor delta (Homo sapiens) (UniProt Q03181); test: qHTS assay to identify small molecule antagonists of the peroxisome proliferator-activated receptor delta (PPARd) signaling pathway (AID 743215; active means well fitted inhibition curve with a large enough effect in the signal ratio in the repeat runs, not every such curve was filed as active; inconclusive means weak or mixed curves, or effect the other way; inactive means no such curve, though single readings can be large or run the other way; the % refers to the signal ratio;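 further: cells stimulated with agonist L165041 at 300 nM final during compound exposure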; further: potency means the concentration at half of the fitted maximal effect); settings: HEK293H PPARd-UAS-bla, beta-lactamase FRET ratio, antagonist, 17 h; ratio activity, negative = inhibition: at 62 µM (top of the series) unless noted
# Outline: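 PPARd-bla HEK293H cells (UAS-bla reporter) preincubated 5 h, then given compound plus 300 nM final L165041 agonist for 17 h at 37 C. Beta-lactamase activity read by LiveBLAzer B/G FRET substrate fluorescence after 2 h at room temperature.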
# [7] = qHTS assay to identify small molecule agonists of the farnesoid-X-receptor (FXR) signaling pathway - cell viability counter screen (AID 743218); settings: FXR-bla HEK293T viability, CellTiter-Glo luminescence, 16 h; viability change, negative = cytotoxic: at 62.6 µM (top of the series) unless noted; further: nearly all actives have a fitted effect of over 45% in size; further: potency means the concentration at half of the fitted maximal effect
# Outline: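 FXR-UAS-bla HEK 293T cells exposed to compounds for 16 h at 37C. Cytotoxicity read in the same wells by CellTiter-Glo luminescence after 30 min at room temperature, following the beta-lactamase FRET read.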
# [8] = qHTS assay to identify small molecule antagonists of the farnesoid-X-receptor (FXR) signaling pathway - cell viability counter screen (AID 743221; active means well fitted cell-killing curve with a large enough effect in the repeat runs, not every such curve was filed as active; inconclusive means weak or mixed curves, or effect the other way; inactive means no such curve, though single readings can be large or run the other way; further: potency means the concentration at half of the fitted maximal effect; nearly all actives have a fitted effect of over 50% in size); settings: FXR-bla HEK293T viability, CellTiter-Glo luminescence, 16 h; activity change, negative = cytotoxicity: at 62.6 µM (top of the series) unless noted
# Outline: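 HEK 293T FXR-bla cells, 5 h pre-incubation; compound + CDCA 50 uM final, 16 h, 37 C; beta-lactamase FRET read first, then CellTiter-Glo luminescence, 30 min RT.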
# [9] = qHTS assay to identify small molecule antagonists of the vitamin D receptor (VDR) signaling pathway - cell viability counter screen (AID 743225); settings: VDR-bla HEK293T viability, CellTiter-Glo luminescence, 16 h; viability change, negative = cytotoxic: at 61 µM (top of the series) unless noted; further: nearly all actives have a fitted effect of over 50% in size; further: potency means the concentration at half of the fitted maximal effect
# Outline: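 Viability counter screen run in the same wells as the beta-lactamase reporter assay: HEK 293T VDR-UAS-bla cells, 16 h compound exposure at 37C with 3 nM (final) 1-alpha,25-dihydroxyvitamin D3. CellTiter-Glo luminescence, 30 min, room temperature.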
# [10] = qHTS assay to identify small molecule agonists of the endoplasmic reticulum stress response signaling pathway (AID 1159516; active means well fitted activation curve with a large enough effect in the signal ratio in the repeat runs, not every such curve was filed as active; inconclusive means weak or mixed curves, or effect the other way; the % refers to the signal ratio; further: potency means the concentration at half of the fitted maximal effect); settings: ESRE-bla HeLa, ER stress beta-lactamase reporter, 5 h; activation: at 61 µM (top of the series) unless noted
# Outline: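 CellSensor ESRE-bla HeLa cells, 1,500 per well, plated overnight, then exposed to compounds for 5 hr at 37 C. Beta-lactamase reporter read with LiveBLAzer B/G FRET substrate after 2 hr at room temperature, 405 nm excitation, 460 and 530 nm emission.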
# [11] = qHTS assay for small molecule activators of the heat shock response signaling pathway (AID 743210; active means well fitted activation curve with a large enough effect in the signal ratio in the repeat runs, with a control signal flat, not every such curve was filed as active; inconclusive means weak or mixed curves; the % refers to the signal ratio; further: potency means the concentration at half of the fitted maximal effect); settings: HeLa HSE-bla reporter, beta-lactamase ratio, 5 h; activation: at 62.6 µM (top of the series)
# Outline: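 HSE-bla HeLa cells (beta-lactamase reporter under heat shock response elements) were exposed to compounds for 5 h at 37 C, then loaded with LiveBLAzer B/G FRET substrate for 2.5 h at room temperature before fluorescence reading.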
# [12] = biological target: Peroxisome proliferator-activated receptor delta (Homo sapiens) (UniProt Q03181); test: qHTS assay to identify small molecule agonists of the peroxisome proliferator-activated receptor delta (PPARd) signaling pathway (AID 743212; calls by dose curve; further: potency means the concentration at half of the fitted maximal effect); settings: HEK293H PPARd-UAS-bla, beta-lactamase FRET ratio, 17 h; activation: at 62.6 µM (top of the series) unless noted
# Outline: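 GeneBLAzer PPARd UAS-bla HEK293H cells (beta-lactamase reporter under UAS control), plated and rested 5 h at 37 C, then exposed to compounds in DMSO at 37 C; LiveBLAzer B/G FRET substrate added, 2 h room temperature, fluorescence read.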
# [13] = biological target: Bile acid receptor (Homo sapiens) (UniProt Q96RI1); test: qHTS assay to identify small molecule antagonists of the farnesoid-X-receptor (FXR) signaling pathway (AID 743217; active means well fitted inhibition curve with a large enough effect in the signal ratio in the repeat runs, not every such curve was filed as active; inconclusive means weak or mixed curves, or effect the other way; inactive means no such curve, though single readings can be large or run the other way; the % refers to the signal ratio; further: potency means the concentration at half of the fitted maximal effect); settings: HEK293T FXR-UAS-bla, beta-lactamase ratio, CDCA-stimulated, 16 h; activity change, negative = inhibition: at 62.6 µM (top of the series) unless noted
# Outline: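 FXR-UAS-bla HEK 293T cells (beta-lactamase reporter) given compound plus chenodeoxycholic acid (50 uM final), 16 h at 37C. LiveBLAzer B/G FRET substrate added for 2 h at room temperature; fluorescence read.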
# [14] = biological target: Bile acid receptor (Homo sapiens) (UniProt Q96RI1); test: qHTS assay to identify small molecule agonists of the farnesoid-X-receptor (FXR) signaling pathway (AID 743220; active means well fitted activation curve with a large enough effect in the signal ratio in the repeat runs, not every such curve was filed as active; inconclusive means weak or mixed curves, or effect the other way; the % refers to the signal ratio; further: on the % scale 0 is the no-effect control and ±100 the full control effect); settings: HEK293T FXR-UAS-bla, beta-lactamase FRET ratio, 16 h; activation: at 62.6 µM (top of the series) unless noted
# Outline: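 Beta-lactamase reporter under UAS control in GeneBLAzer FXR HEK 293T cells (5000/well) measured with LiveBLAzer FRET substrate after 2 h at room temperature. Compound exposure lasted 16 h at 37C.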
# [15] = qHTS assay to identify small molecule agonists of the vitamin D receptor (VDR) signaling pathway - cell viability counter screen (AID 743224)
# Outline: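 VDR-bla cells, 4 h after plating, exposed to compounds for 16 h at 37C; viability then read in the same wells as CellTiter-Glo luminescence after 30 min at room temperature, following the bla FRET read.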
# [16] = biological target: Vitamin D3 receptor (Homo sapiens) (UniProt P11473); test: qHTS assay to identify small molecule antagonists of the vitamin D receptor (VDR) signaling pathway (AID 743223; active means well fitted inhibition curve with a large enough effect in the signal ratio in the repeat runs, not every such curve was filed as active; inconclusive means weak or mixed curves, or effect the other way; inactive means no such curve, though single readings can be large or run the other way; the % refers to the signal ratio; further: on the % scale 0 is the no-effect control and ±100 the full control effect); settings: VDR-UAS-bla HEK293T, beta-lactamase FRET ratio, 16 h; activity change, negative = inhibition: at 61 µM (top of the series) unless noted
# Outline: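 Beta-lactamase reporter read-out: FRET substrate fluorescence after 2 h at room temperature, following 16 h exposure of VDR-bla cells to test compound plus 3 nM (final) 1alpha,25-dihydroxyvitamin D3 agonist at 37C.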
# Tags describe the fitted curve by direction and shape or compound fluorescence and quenching.
# UniProt P37231, sequence (P37231 whole entry, looked up): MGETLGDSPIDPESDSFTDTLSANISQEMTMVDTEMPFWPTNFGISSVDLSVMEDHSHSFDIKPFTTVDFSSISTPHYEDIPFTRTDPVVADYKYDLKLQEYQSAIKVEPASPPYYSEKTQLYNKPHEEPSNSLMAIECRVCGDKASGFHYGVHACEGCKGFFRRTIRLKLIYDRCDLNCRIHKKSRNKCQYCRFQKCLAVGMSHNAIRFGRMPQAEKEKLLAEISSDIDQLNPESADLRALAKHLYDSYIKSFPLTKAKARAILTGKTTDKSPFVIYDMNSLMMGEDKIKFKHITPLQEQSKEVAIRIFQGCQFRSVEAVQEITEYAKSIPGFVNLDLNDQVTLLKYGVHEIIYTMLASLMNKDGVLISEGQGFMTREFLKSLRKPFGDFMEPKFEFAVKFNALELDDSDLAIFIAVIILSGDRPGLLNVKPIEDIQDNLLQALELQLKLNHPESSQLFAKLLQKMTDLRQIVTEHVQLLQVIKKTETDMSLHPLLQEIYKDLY
# UniProt Q03181, sequence (Q03181 whole entry, looked up): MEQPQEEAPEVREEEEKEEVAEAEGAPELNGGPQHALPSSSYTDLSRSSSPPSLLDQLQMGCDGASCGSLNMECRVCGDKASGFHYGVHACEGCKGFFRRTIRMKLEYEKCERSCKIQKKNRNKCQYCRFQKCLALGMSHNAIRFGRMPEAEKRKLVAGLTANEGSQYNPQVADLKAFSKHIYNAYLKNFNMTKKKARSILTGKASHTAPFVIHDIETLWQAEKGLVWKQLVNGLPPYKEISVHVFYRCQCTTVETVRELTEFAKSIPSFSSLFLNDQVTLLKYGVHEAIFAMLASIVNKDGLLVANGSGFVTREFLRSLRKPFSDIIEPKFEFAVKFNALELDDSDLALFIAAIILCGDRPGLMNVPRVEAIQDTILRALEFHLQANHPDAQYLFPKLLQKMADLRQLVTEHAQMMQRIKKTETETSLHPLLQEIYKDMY
# UniProt Q96RI1, sequence (Q96RI1 whole entry, looked up): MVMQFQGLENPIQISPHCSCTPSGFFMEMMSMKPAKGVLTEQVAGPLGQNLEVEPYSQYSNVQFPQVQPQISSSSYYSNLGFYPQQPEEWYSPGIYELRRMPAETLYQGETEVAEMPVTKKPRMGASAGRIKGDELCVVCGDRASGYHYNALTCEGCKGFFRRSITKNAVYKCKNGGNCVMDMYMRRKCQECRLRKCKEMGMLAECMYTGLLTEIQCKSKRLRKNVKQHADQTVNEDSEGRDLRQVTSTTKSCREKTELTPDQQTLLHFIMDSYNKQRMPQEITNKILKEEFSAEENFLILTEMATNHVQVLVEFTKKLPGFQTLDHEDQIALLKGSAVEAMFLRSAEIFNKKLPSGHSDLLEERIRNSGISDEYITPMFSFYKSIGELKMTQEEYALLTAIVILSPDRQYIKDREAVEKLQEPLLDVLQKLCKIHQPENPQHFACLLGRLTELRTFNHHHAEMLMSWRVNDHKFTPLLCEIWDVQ
# UniProt P11473, sequence (P11473 whole entry, looked up): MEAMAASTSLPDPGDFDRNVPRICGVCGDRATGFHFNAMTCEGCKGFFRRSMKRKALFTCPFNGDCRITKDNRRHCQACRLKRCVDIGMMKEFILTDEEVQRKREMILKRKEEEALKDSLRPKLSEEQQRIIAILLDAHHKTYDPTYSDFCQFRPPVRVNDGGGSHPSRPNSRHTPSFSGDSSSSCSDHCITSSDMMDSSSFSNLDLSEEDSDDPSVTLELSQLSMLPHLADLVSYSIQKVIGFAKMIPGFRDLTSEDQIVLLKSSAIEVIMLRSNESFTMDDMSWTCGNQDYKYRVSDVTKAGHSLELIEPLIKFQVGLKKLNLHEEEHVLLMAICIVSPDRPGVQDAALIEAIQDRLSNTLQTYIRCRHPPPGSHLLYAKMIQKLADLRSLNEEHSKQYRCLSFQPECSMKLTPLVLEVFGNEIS
compound,measurement,setting,value
c1ccc2c(c1)Nc1ccccc1S2,Potency,[1],"inconclusive: 6.16 µM [inhibitor, full curve]"
same,"activity change, negative = cytotoxicity",[2],"inconclusive: -49.8% [at 81.1 µM, co-treated with 50 nM rosiglitazone]"
same,Potency,[3],inactive
same,Potency,[4],"inconclusive: 12.3 µM [cytotoxic, partial curve, poor fit]"
same,Potency,[5],"inconclusive: 12.3 µM [cytotoxic, single point]"
same,Potency,[6],"inconclusive: 77.6 µM [rising, partial curve, poor fit]"
same,Potency,[7],"inconclusive: 0.386 µM [cytotoxic, full curve]"
same,Potency,[8],"inconclusive: 0.0211 µM [falling, full curve, poor fit]"
same,Potency,[9],"inconclusive: 15.5 µM [cytotoxic, partial curve] and inactive"
same,Potency,[10],"inconclusive: 49 µM [cytotoxic, partial curve, poor fit]"
CCC(C)(NC(=O)c1cc(Cl)c(C)c(Cl)c1)C(=O)CCl (stereo not drawn),Potency,[1],"inconclusive: 11 µM [rising, partial curve]"
same,Potency,[2],active: 39.1 µM
same,Potency,[3],"inconclusive: 15.4 µM [falling, full curve]"
same,Potency,[4],"inconclusive: 17.5 µM [cytotoxic, full curve, poor fit]"
same,Potency,[11],inconclusive: 16.8 µM
same,Potency,[12],"inconclusive: 22 µM [rising, partial curve, poor fit]"
same,Potency,[5],"inconclusive: 55.3 µM [cytotoxic, single point]"
same,Potency,[6],"inconclusive: 1.75 µM [rising, full curve, poor fit]"
same,Potency,[13],inconclusive: 49.3 µM
same,Potency,[7],"inconclusive: 55.3 µM [cytotoxic, single point]"
same,activation,[14],inconclusive: -6.51% [at 81.1 µM]
same,Potency,[15],active: 55.3 µM
same,Potency,[9],inconclusive: 62 µM [cytotoxic]
same,activation,[10],inconclusive: -0.358% [at 78.8 µM]
COP(=S)(OC)SCn1nnc2ccccc2c1=O,Potency,[1],active: 49 µM
same,"ratio activity, negative = inhibition",[1],inconclusive: -46.8%
same,Potency,[3],"inconclusive: 19.3 µM [rising, full curve, poor fit]"
same,Potency,[4],inactive
same,Potency,[11],inconclusive: 28.6 µM
same,"ratio activity, negative = inhibition",[6],inconclusive: -45.6% and inconclusive: -42.4%
same,"viability change, negative = cytotoxic",[7],inconclusive: 40.1%
same,"activity change, negative = inhibition",[16],inconclusive: -41.7%
same,Potency,[10],inactive
